Reference: PubChem BioAssay AID1476 (National Center for Advancing Translational Sciences (NCATS), 2009)
The campaign covered roughly 200,000 compounds. About 4,500 (2.2%) were called active. The inconclusive results got no clear call from the source; some entries with a clear call stand among them for comparison. Calls follow the shape of the dose curve; as a rule, active = well fitted inhibition curve with a large enough effect; inconclusive = small, poorly fitted or top-dose-only effect, or effect the other way; inactive = flat fitted curve, though single readings scatter. Potencies of inconclusive entries are doubtful fits and often do not repeat.

molecular target: Cruzipain (Trypanosoma cruzi) (UniProt P25779); test: qHTS Assay for Promiscuous and Specific Inhibitors of Cruzain (without detergent); settings: purified cruzain, Z-FR-AMC fluorescence, no detergent; also: nearly all actives have a fitted effect of over 40% in size;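 as to max response, negative = inhibition: plate controls were enzyme without inhibitor for no effect and buffer without enzyme for full effect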
Chain of UniProt P25779 (P25779 whole entry, looked up): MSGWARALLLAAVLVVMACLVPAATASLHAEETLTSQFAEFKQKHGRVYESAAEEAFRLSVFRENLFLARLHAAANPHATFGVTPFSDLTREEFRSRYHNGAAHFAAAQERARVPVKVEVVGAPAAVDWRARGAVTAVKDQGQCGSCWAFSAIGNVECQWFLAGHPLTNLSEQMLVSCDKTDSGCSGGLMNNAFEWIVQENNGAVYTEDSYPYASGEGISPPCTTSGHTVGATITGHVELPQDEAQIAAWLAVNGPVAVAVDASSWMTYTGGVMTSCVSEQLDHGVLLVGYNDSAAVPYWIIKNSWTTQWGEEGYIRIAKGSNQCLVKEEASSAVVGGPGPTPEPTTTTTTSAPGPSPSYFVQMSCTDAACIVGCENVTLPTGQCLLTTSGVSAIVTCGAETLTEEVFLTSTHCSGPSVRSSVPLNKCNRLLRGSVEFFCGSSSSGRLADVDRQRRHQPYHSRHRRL
In short: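 Purified cruzain at 1.5 nM, pre-incubated 15 min with compound at room temperature in 100 mM sodium acetate pH 5.5, 5 mM DTT, 0.00005% Triton X-100. Reaction started with 2 uM Z-FR-AMC; AMC fluorescence increase over 60 s gives rate.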
Potency is read from the fitted curve at half-maximal effect; tags tell the direction and shape of the fitted curve.

Row | SMILES | max response, negative = inhibition | Potency
1 | CN(C)c1ccc(C(CC(=O)c2ccccc2)C2CCCCC2=O)cc1 (stereo unspecified) | inactive: 5.94% | 
2 | CCc1ccc(NC(=O)CSc2nc3c([nH]c4ccccc43)c(=O)n2-c2cccc(OC)c2)cc1 |  | active: 12.6 µM
3 | COc1ccc(C(c2nnnn2C(C)(C)C)N2CCN(c3nc4ccccc4s3)CC2)cc1OC (stereo unspecified) |  | inconclusive: 31.6 µM [activator, partial curve]
4 | CCN(CC)S(=O)(=O)c1cc(NC(=O)COC(=O)CCc2nc3ccccc3s2)ccc1C |  | inconclusive: 39.8 µM [activator, single point]
5 | O=C(Cc1ccc(Cl)cc1)Nc1ccc2oc(-c3ccccc3F)nc2c1 |  | active: 7.94 µM
6 | CNC(=O)c1c(NC(=O)Cc2coc3ccc(OC)cc23)sc2c1CCCC2 |  | inconclusive: 20 µM [inhibitor, partial curve]
7 | CC(C)Oc1cccc(C(=O)NC(=S)Nc2cccc(NC(=O)c3ccccc3Cl)c2)c1 |  | inconclusive: 39.8 µM [inhibitor, single point]
8 | COc1ccc2c(c1)O[C@@H](c1cccc(C(F)(F)F)c1)[C@H](OC(=O)Nc1ccc(C)c(Br)c1)C2=O |  | inconclusive: 39.8 µM [inhibitor, single point]
9 | CCOc1c(Br)cc(/C=C2\C(=O)N(CCC#N)N=C2C)cc1OC |  | inconclusive: 20 µM [activator, single point]
10 | O=C(CSc1nnc(-c2ccccc2O)o1)Oc1ccc(OCc2ccccc2)cc1 |  | inconclusive: 25.1 µM [inhibitor, single point]
11 | Cc1ccc(C(C)C)c(OCC(=O)N2CCN(Cc3nc4cc([N+](=O)[O-])ccc4n3C)CC2)c1 |  | inconclusive: 25.1 µM [activator, partial curve]
12 | Cc1ccc(Nc2c(-c3ccc(C)cc3)nc3c(C)cccn23)cc1 |  | inconclusive: 39.8 µM [activator, single point]
13 | CC(=O)CC(C)(C)S(=O)(=O)c1ccc(Oc2ccc(S(=O)(=O)C(C)(C)CC(C)=O)cc2)cc1 |  | inconclusive: 25.1 µM [activator, partial curve]
14 | Cc1cc2n(n1)CCC(=O)N2Cc1ccc(C(=O)Nc2cccc(C(F)(F)F)c2)cc1 |  | inconclusive: 39.8 µM [activator, single point]
15 | COC(=O)c1cc2sc(C)cc2n1Cc1nc(-c2ccc(C)cc2)oc1C | inactive: -7.81% | 
16 | CC[C@H]1C2=C3C(CC[C@H]4C(OCc5ccc(F)cc5C(F)(F)F)OC[C@](C)([C@@H]34)N(C(=O)OC(C)(C)C)C2)C2COC(=O)OCC21 (stereo partly specified) |  | inconclusive: 31.6 µM [activator, single point]
